# From patent US11897961B2, “Anti-CD123 antibodies and conjugates and derivatives thereof” (IMMUNOGEN, INC., priority 2015, dated 2024)
# Values joined by “and” are separate entries in the source; they are usually repeats but may differ in a detail not shown here. Identical values can stand only once.
# B1: huCD123-CysMab-D5 (conjugate)
# heavy: QVQLVQSGAEVKKPGASVKVSCKASGYIFTSSIMHWVRQAPGQGLEWIGYIKPYNDGTKYNEKFKGRATLTSDRSTSTAYMELSSLRSEDTAVYYCAREGGNDYYDTMDYWGQGTLVTVSS[here human IgG1 constant region with changes without letters]
# light: DIQMTQSPSSLSASVGDRVTITCRASQDINSYLSWFQQKPGKAPKTLIYRVNRLVDGVPSRFSGSGSGNDYTLTISSLQPEDFATYYCLQYDAFPYTFGQGTKVEIKRTVAAPSVFIFPPSDEQLKSGTASVVCLLNNFYPREAKVQWKVDNALQSGNSQESVTEQDSKDSTYSLSSTLTLSKADYEKHKVYACEVTHQGLSSPVTKSFNRGEC
# Columns and labels:
# [1] = tested on: SKM-1 cells; experiment: In vitro cytotoxicity assay, SKM-1; format: cell-based, human; settings: SKM-1, P53; read-out: huCD123-CysMab-D5 IC50 pMol
# [2] = tested on: MV4-11 cells; experiment: MV4-11 subcutaneous model in CB.17 SCID mice (Example 29); format: in vivo, mouse; settings: for % T/C (Day 49): single i.v., day 15
# [3] = tested on: EOL-1 cells; experiment: EOL-1 subcutaneous model in athymic nude mice, third study; settings: 3 μg/kg by D5
# [4] = tested on: Molm-13 cells; experiment: Molm-13 disseminated model in athymic nude mice; format: in vivo, mouse; settings: for Median Survival Time: single i.v., day 7
# [5] = tested on: KO52 cells; experiment: In vitro cytotoxicity assay (WST-8), KO52; format: cell-based, human; settings: read-out: huCD123-CysMab-D5 IC50 pMol
# [6] = tested on: AML progenitor cells; experiment: In vitro cytotoxicity on AML patient samples (AML progenitor cells); format: cell-based, human; settings: unselected AML patient samples, FIG. 18
# [7] = tested on: THP1 cells; experiment: In vitro cytotoxicity assay (WST-8), THP1; format: cell-based, human; settings: THP-1, P53; read-out: huCD123-CysMab-D5 IC50 pMol
# [8] = tested on: KASUMI-3 cells; experiment: In vitro cytotoxicity assay (WST-8), KASUMI-3; format: cell-based, human; settings: KASUMI-3, P53 and MDR1; read-out: huCD123-CysMab-D5 IC50 pMol
# [9] = tested on: SHI-1 cells; experiment: In vitro cytotoxicity assay (WST-8), SHI-1; settings: read-out: huCD123-CysMab-D5 IC50 pMol; SHI-1, P53
# [10] = tested on: MV4-11 cells; experiment: MV4-11 disseminated model in NOD SCID mice; settings: for Median Survival Time: single i.v., day 7
# [11] = In vivo tolerability in CD-1 mice; set-up: species or system mouse; settings: for Number of mice euthanized for >20 BW loss: single i.v.
# Experimental: Female CD-1 mice received a single intravenous injection into the lateral tail vein of vehicle, 150 μg/kg (by D5, 12 mg/kg by huCD123) of huCD123-CysMab-D5, 125 μg/kg (by D5, 10 mg/kg by huCD123) of huCD123-CysMab-D5, 100 μg/kg (by D5, 8 mg/kg by huCD123) of huCD123-CysMab-D5, 150 μg/kg (by sD1, 14.3 mg/kg by huCD123) of huCD123-SeriMab-sD1 or 125 μg/kg (by sD 1, 11.9 by huCD123) of huCD123-SeriMab-sD 1. […] The mice were observed daily for 33 days, and body weights were determined. If an animal experienced greater than 20% body weight loss or became moribund, the animal was euthanized. Other than body weight loss, no other clinical observations were made during the course of the study in any of the treatment.
# Female CD-1 mice received a single intravenous injection into the lateral tail vein of vehicle, 75 μg/kg (by D2, 4.4 mg/kg by huCD123) of huCD123-lysine linked-D2, 100 μg/kg (by D2, 5.9 mg/kg by huCD123) of huCD123-lysine linked-D2 or 125 μg/kg (by D2, 7.4 mg/kg by huCD123) of huCD123-lysine linked-D2. […] The mice were observed daily for 22 days, and body weights were determined. If an animal experienced greater than 20% body weight loss or became moribund, the animal was euthanized.
# [12] = tested on: EOL-1 cells; experiment: In vitro cytotoxicity assay (WST-8), EOL-1; settings: read-out: huCD123-CysMab-D5 IC50 pMol
molecule,measurement,setting,value
B1,IC50,[1],7 pM
same,CR,[2]; 0.3 μg/kg by payload,0/6
same,PR,[2]; 0.3 μg/kg by payload,0/6
same,Result,[2]; 0.3 μg/kg by payload,Inactive
same,% T/C (Day 49),[2]; 0.3 μg/kg by payload,69%
same,CR,[2]; 1 μg/kg by payload,5/6
same,PR,[2]; 1 μg/kg by payload,5/6
same,% T/C (Day 49),[2]; 1 μg/kg by payload,0%
same,CR,[2]; 3 μg/kg by payload,6/6
same,PR,[2]; 3 μg/kg by payload,6/6
same,% T/C (Day 49),[2]; 3 μg/kg by payload,0%
same,CR,[3],8/8
same,PR,[3],8/8
same,% ILS,[4]; 0.1 μg/kg by payload,> 262.5% and 262.5%
same,"Tumor Growth Delay (T-C, Days)",[4]; 0.1 μg/kg by payload,73.5 days
same,Median Survival Time,[4]; 0.1 μg/kg by payload,101.5 days
same,% ILS,[4]; 0.3 μg/kg by payload,> 262.5%
same,"Tumor Growth Delay (T-C, Days)",[4]; 0.3 μg/kg by payload,>73.5 days
same,Median Survival Time,[4]; 0.3 μg/kg by payload,>101.5 days
same,% ILS,[4]; 1 μg/kg by payload,> 262.5%
same,"Tumor Growth Delay (T-C, Days)",[4]; 1 μg/kg by payload,>73.5 days
same,Median Survival Time,[4]; 1 μg/kg by payload,>101.5 days
same,IC50,[5],0.02 nM
same,"activity, fold higher than Mylotarg",[6],74 fold
same,IC50,[7],0.03 nM
same,IC50,[8],3 pM
same,IC50,[9],6 pM
same,"Tumor Growth Delay (T-C, Days)",[10]; 1 μg/kg by payload,35 days
same,Median Survival Time,[10]; 1 μg/kg by payload,81 days
same,"Tumor Growth Delay (T-C, Days)",[10]; 3 μg/kg by payload,32 days
same,Median Survival Time,[10]; 3 μg/kg by payload,78 days
same,tolerability,[11]; 100 μg/kg by drug payload,tolerated
same,Number of mice euthanized for >20 BW loss,[11]; 100 μg/kg by drug payload,0/8
same,% decrease in mean body weight at nadir,[11]; 125 μg/kg by drug payload,8.6%
same,Body weight nadir,[11]; 125 μg/kg by drug payload,10 days
same,tolerability,[11]; 125 μg/kg by drug payload,not well tolerated
same,Number of mice euthanized for >20 BW loss,[11]; 125 μg/kg by drug payload,1/8
same,% decrease in mean body weight at nadir,[11]; 150 μg/kg by drug payload,11%
same,Body weight nadir,[11]; 150 μg/kg by drug payload,12 days
same,tolerability,[11]; 150 μg/kg by drug payload,not tolerated
same,Number of mice euthanized for >20 BW loss,[11]; 150 μg/kg by drug payload,1/8
same,IC50,[12],2 pM
